Laboratory results published in patent US20250134874A1, “PHARMACEUTICAL FORMULATIONS COMPRISING 3-({[(4R)-7-{METHYL[4-(PROPAN-2-YL)PHENYL]AMINO}-3,4-DIHYDRO-2H-1-BENZOPYRAN-4-YL]METHYL}AMINO)PYRIDINE-4-CARBOXYLIC ACID” (TACHYON THERAPEUTICS, INC., priority 2021, published 2025).
Further values from the same series stand in other lists.

System: 301 cancer cell lines from different tumor types (OncoPanel; HD Biosciences)
Test: 2D cell viability inhibition assay (CellTiter-Glo) in cancer cell line panel
Type: cell-based
Conditions: in %
Procedure: In a larger screening study, compound 1 was evaluated across a broad cancer cell line panel (OncoPanel; HD Biosciences) composed of 301 cancer cell lines from different tumor types.
2D cell viability inhibition assays were performed in multiwell plates seeded with cells from the panel. After seeding, the plates were cultured overnight in a humidified incubator at 37° C. to promote adherence. Assays were initiated in individual wells by adding either DMSO as a vehicle control, growth media as a blank, or serially diluted compound 1 (10 μM to 0.0005 μM with 1:3 serial dilution). Cultures were incubated for 168 hours after which the number of viable cells in each test well was assessed using the CellTiter-Glo® Luminescent Cell Viability Assay. Luminescence readouts were performed using an EnVision® Multilabel Reader and the compound 1 readouts were normalized to the DMSO control readouts, expressed as a percent of the control. Outliers were flagged out by visual inspection. Percent of control was plotted against the corresponding compound 1 concentration and the absolute IC50 value was determined using four-parameter logistic non-linear regression as the concentration where inhibition was 50% of the control. For maximum inhibition <50%, the absolute IC50 was reported as >10. In addition to EC50 and IC50, AUC was determined and was normalized to the area corresponding to theoretical no-inhibition (the rectangular area defined by the compound dose range and 0 to 100 in y). Emax was recorded as the minimum in y with the compound dose range. For those cell lines where Emax>40, EC50 was manually set to 10 μM. A hierarchical clustering algorithm based on Euclidean distance between the standardized input values and “Ward.D” method as implemented in R hclust function was used to visualize the compound 1 cellular potency data. The sensitive/moderate/resistant calls for each cell line was determined by visually inspecting the resulting clustering dendrogram. All the analyses were done in R Core Team.

CC(C)c1ccc(N(C)c2ccc3c(c2)OCC[C@H]3CNc2cnccc2C(=O)O)cc1 [Compound 1, 3-({[(4R)-7-{methyl[4-(propan-2-yl)phenyl]amino}-3,4-dihydro-2H-1-benzopyran-4-yl]methyl}amino)pyridine-4-carboxylic acid]
Emax (7860 cell line): 22.93 | Emax (A204, soft tissue, NS, 168 hours): 58.91 | Emax (A549 cell line): 31.11 | Emax (A2058 cell line): 30.64 | Emax (A2780 cell line): 3.567 | Emax (ACHN cell line): 2.197 | Emax (ASPC1 cell line): 32.81 | Emax (AZ521 cell line): 8.891 | Emax (BICR18 cell line): 4.762 | Emax (BICR22 cell line): 54.76 | Emax (BT20, breast, ductal carcinoma, 168 hours): 78.79 | Emax (BT474, breast, ductal carcinoma, 168 hours): 53.88 | Emax (BXPC3 cell line): 36.5952 | Emax (C2BBE1, large intestine, adenocarcinoma, 168 hours): 59.34 | Emax (C32 cell line): 1.007 | Emax (CAL27, upper aerodigestive tract, squamous cell carcinoma, 168 hours): 74.68 | Emax (CALU1, lung, squamous cell carcinoma, 168 hours): 118.4694 | Emax (CALU3, lung, adenocarcinoma, 168 hours): 50.88 | Emax (CAPAN1 cell line): 40.2242 | Emax (CAPAN2, pancreas, ductal carcinoma, 168 hours): 75.02 | Emax (CCFSTTG1, central nervous system, astrocytoma, 168 hours): 78.9 | Emax (CHL1 cell line): 13.22 | Emax (COLO320HSR cell line): 0.9007 | Emax (COLO679 cell line): 24.72 | Emax (COLO829 cell line): 47.96 | Emax (CORL279 cell line): 11.3227 | Emax (DAOY, central nervous system, NS, 168 hours): 83.4 | Emax (DLD1 cell line): 5.54 | Emax (DMS53, lung, small cell carcinoma, 168 hours): 49.07 | Emax (DMS79 cell line): 27.09 | Emax (DMS153 cell line): 50.81 | Emax (DMS273 cell line): 16.58 | Emax (ECGI10 cell line): 39.23 | Emax (G361, skin, NS, 168 hours): 89.52 | Emax (G401 cell line): 3.808 | Emax (GAK cell line): 47.7 | Emax (GI1 cell line): 9.191 | Emax (GP2D cell line): 20.32 | Emax (HCC38, breast, ductal carcinoma, 168 hours): 93.61 | Emax (HCC78 cell line): 23.4 | Emax (HCC95 cell line): 17.04 | Emax (HCC827, lung, adenocarcinoma, 168 hours): 74.84 | Emax (HCC1143 cell line): 50.38 | Emax (HCC1419, breast, ductal carcinoma, 168 hours): 52.42 | Emax (HCC1428, breast, NS, 168 hours): 59.9889 | Emax (HCC1937, breast, ductal carcinoma, 168 hours): 80.9493 | Emax (HCC1954 cell line): 43.63 | Emax (HCC2935 cell line): 50.08 | Emax (HCT116 cell line): 35.92 | Emax (HEP3B217 cell line): 47.2 | Emax (HEPG2 cell line): 37.76 | Emax (HPAC cell line): 20.85 | Emax (HS294T cell line): 28.14 | Emax (HS688AT, skin, NS, 168 hours): 98.47 | Emax (HS695T, skin, NS, 168 hours): 74.11 | Emax (HS739T, breast, NS, 168 hours): 78.35 | Emax (HS839T, skin, NS, 168 hours): 101.2434 | Emax (HS852T, skin, NS, 168 hours): 78.51 | Emax (HSC3 cell line): 47.26 | Emax (HT29 cell line): 29.83 | Emax (HT144, skin, NS, 168 hours): 81.61 | Emax (HT1376 cell line): 18.92 | Emax (HUH28, biliary tract, NS, 168 hours): 92.15 | Emax (HUTU80 cell line): 8.151 | Emax (J82 cell line): 48.7 | Emax (JEKO1 cell line): 0.08738 | Emax (JIMT1 cell line): 13.46 | Emax (K562 cell line): 4.383 | Emax (KALS1 cell line): 49.79 | Emax (KASUMI1, haematopoietic and lymphoid tissue, acute myeloid leukaemia, 168 hours): 81.08 | Emax (KATOIII cell line): 12.88 | Emax (KG1, haematopoietic and lymphoid tissue, acute myeloid leukaemia, 168 hours): 80.44 | Emax (KNS81 cell line): 58.5801 | Emax (KURAMOCHI, ovary, undifferentiated carcinoma, 168 hours): 73.85 | Emax (KYSE70, oesophagus, squamous cell carcinoma, 168 hours): 50.19 | Emax (KYSE150 cell line): 9.557 | Emax (KYSE270 cell line): 7.793 | Emax (KYSE510 cell line): 0.5797 | Emax (LNCAP cell line): 21.5094 | Emax (LOUCY cell line): 2.522 | Emax (LOVO cell line): 47.95 | Emax (LU99, lung, large cell carcinoma, 168 hours): 64.66 | Emax (LUDLU1 cell line): 28.03 | Emax (MALME3M, skin, NS, 168 hours): 94.08 | Emax (MC116 cell line): 5.43 | Emax (MCF7 cell line): 43.7 | Emax (MDAMB157, breast, ductal carcinoma, 168 hours): 64.71 | Emax (MDAMB175VII, breast, ductal carcinoma, 168 hours): 60.66 | Emax (MDAMB231, breast, NS, 168 hours): 55.94 | Emax (MDAMB361, breast, NS, 168 hours): 94.55 | Emax (MDAMB415, breast, NS, 168 hours): 83.39 | Emax (MDAMB436, breast, NS, 168 hours): 70.42 | Emax (MDAMB468, breast, NS, 168 hours): 50.87 | Emax (MEWO, skin, NS, 168 hours): 56.56 | Emax (MKN1 cell line): 17.76 | Emax (MPP89 cell line): 51.43 | Emax (MV411 cell line): 0.05647 | Emax (NAMALWA cell line): 6.457 | Emax (NCIH23 cell line): 27.39 | Emax (NCIH82 cell line): 4.91 | Emax (NCIH441, lung, adenocarcinoma, 168 hours): 67.49 | Emax (NCIH446 cell line): 24.17 | Emax (NCIH520 cell line): 10.58 | Emax (NCIH596, lung, mixed adenosquamous carcinoma, 168 hours): 61.34 | Emax (NCIH929 cell line): 24.32 | Emax (NCIH1048 cell line): 7.15 | Emax (NCIH1155 cell line): 0.2638 | Emax (NCIH1355 cell line): 35.38 | Emax (NCIH1395, lung, adenocarcinoma, 168 hours): 70.68 | Emax (NCIH1435, lung, non-small cell carcinoma, 168 hours): 60.04 | Emax (NCIH1563, lung, adenocarcinoma, 168 hours): 93.507 | Emax (NCIH1573, lung, adenocarcinoma, 168 hours): 53.57 | Emax (NCIH1618 cell line): 0.4886 | Emax (NCIH1623 cell line): 30.06 | Emax (NCIH1650, lung, bronchioloalveolar adenocarcinoma, 168 hours): 68.07 | Emax (NCIH1666 cell line): 21.66 | Emax (NCIH1734 cell line): 54.9 | Emax (NCIH1755, lung, adenocarcinoma, 168 hours): 123.3293 | Emax (NCIH1836 cell line): 10.41 | Emax (NCIH1838, lung, non-small cell carcinoma, 168 hours): 60.0585 | Emax (NCIH1930 cell line): 36.33 | Emax (NCIH1975 cell line): 17.89 | Emax (NCIH2009, lung, adenocarcinoma, 168 hours): 55.69 | Emax (NCIH2023 cell line): 13.34 | Emax (NCIH2081 cell line): 17.9809 | Emax (NCIH2087 cell line): 21.98 | Emax (NCIH2122 cell line): 18.7 | Emax (NCIH2171 cell line): 16.53 | Emax (NCIH2172 cell line): 37.97 | Emax (NCIH2228 cell line): 44.27 | Emax (NCIH2286 cell line): 11.2 | Emax (NCIN87 cell line): 10.8 | Emax (NIHOVCAR3, ovary, NS, 168 hours): 59.47 | Emax (NMCG1, central nervous system, NS, 168 hours): 47.06 | Emax (NOMO1 cell line): 8.172 | Emax (ONS76, central nervous system, NS, 168 hours): 54.63 | Emax (OSRC2 cell line): 52.3524 | Emax (OVISE cell line): 41.61 | Emax (P31FUJ cell line): 7.305 | Emax (PANC1 cell line): 12.03 | Emax (PANC0213 cell line): 32.945 | Emax (PECAPJ34CLONEC12 cell line): 11.8 | Emax (PF382 cell line): 8.405 | Emax (PLCPRF5 cell line): 21.67 | Emax (RCM1 cell line): 42.55 | Emax (REH cell line): 0.2336 | Emax (RERFLCMS cell line): 38.16 | Emax (RL cell line): 1.954 | Emax (RPMI7951, skin, NS, 168 hours): 66.31 | Emax (RT11284 cell line): 18.2 | Emax (SAOS2, bone, NS, 168 hours): 92.52 | Emax (SCC9, upper aerodigestive tract, squamous cell carcinoma, 168 hours): 69.25 | Emax (SCC15, upper aerodigestive tract, squamous cell carcinoma, 168 hours): 90.39 | Emax (SCC25, upper aerodigestive tract, squamous cell carcinoma, 168 hours): 62.3079 | Emax (SKCO1 cell line): 34.7288 | Emax (SKHEP1, liver, adenocarcinoma, 168 hours): 44.3029 | Emax (SKLU1 cell line): 38.28 | Emax (SKMEL2 cell line): 35.37 | Emax (SKMEL3 cell line): 46.9 | Emax (SKMEL24, skin, NS, 168 hours): 58.12 | Emax (SKMEL28 cell line): 4.92 | Emax (SKMEL31, skin, NS, 168 hours): 59.49 | Emax (SKMES1 cell line): 30.66 | Emax (SKNSH, autonomic ganglia, NS, 168 hours): 53.89 | Emax (SKOV3, ovary, adenocarcinoma, 168 hours): 96.03 | Emax (SNGM cell line): 26.88 | Emax (SNU5 cell line): 32.15 | Emax (SNU16 cell line): 7.431 | Emax (SNU668 cell line): 16.0231 | Emax (SNU761 cell line): 38.07 | Emax (SNU878 cell line): 52.15 | Emax (SNU886 cell line): 48.35 | Emax (SNUC1, large intestine, adenocarcinoma, 168 hours): 55.45 | Emax (SNUC2A cell line): 34.42 | Emax (SUPT1 cell line): 48.11 | Emax (SW48 cell line): 37.9499 | Emax (SW579, thyroid, anaplastic carcinoma, 168 hours): 79.98 | Emax (SW620 cell line): 9.079 | Emax (SW837, large intestine, adenocarcinoma, 168 hours): 46.73 | Emax (SW1271, lung, small cell carcinoma, 168 hours): 65.38 | Emax (SW1417, large intestine, adenocarcinoma, 168 hours): 91.96 | Emax (SW1710 cell line): 25.48 | Emax (SW1990 cell line): 49.23 | Emax (T24, urinary tract, transitional cell carcinoma, 168 hours): 75.74 | Emax (T84 cell line): 21.54 | Emax (TALL1 cell line): 4.509 | Emax (TE1, oesophagus, squamous cell carcinoma, 168 hours): 84.54 | Emax (TE8, oesophagus, squamous cell carcinoma, 168 hours): 72.1307 | Emax (TE11 cell line): 10.16 | Emax (TE14 cell line): 12.67 | Emax (TE15, oesophagus, squamous cell carcinoma, 168 hours): 89.04 | Emax (TF1 cell line): 11.55 | Emax (THP1 cell line): 12.48 | Emax (U937 cell line): 1.946 | Emax (UACC812, breast, ductal carcinoma, 168 hours): 62.67 | Emax (UMUC3 cell line): 35.05 | Emax (VCAP, prostate, adenocarcinoma, 168 hours): 62.6 | Emax (WM115 cell line): 36.93 | Emax (WM2664 cell line): 37.49 | Emax (WSUDLCL2 cell line): 0.6346 | Emax (YD38 cell line): 13.64
